From patent US20240376214A1, “ANTI-C-MET ANTIBODIES AND ANTIBODY-DRUG CONJUGATES” (BYONDIS B.V., priority 2021, published 2024) come the findings set out here.

The assay concerns the target T1, human c-Met (Homo sapiens, UniProt P08581).
T1 construct: human c-Met-positive tumor cell lines MKN45, NCI-H596 and PC-3; endogenous in cells; host or cells: MKN45; PC-3
In words: Cellular binding (flow cytometry), MKN45 cells. The settings on record: c-Met-expressing MKN45 cells, FIG. 2. How it is done:
Cellular binding of the 14 wild-type chimeric and the 14 HC-41C chimeric anti-c-Met antibodies was studied in human c-Met-positive tumor cell lines MKN45, NCI-H596 and PC-3, rhesus c-Met-positive tumor cell line 4 MBr-5, and human c-Met-negative tumor cell line MDA-MB-175-VII. Cells were used around 90% of confluence at the time of an assay, detached with Trypsin-Versene (EDTA) (Lonza) for 5-10 minutes, washed and adjusted to a concentration of 1×10^6 cells/mL in ice-cold FACS buffer (PBS 1×, 0.1% v/w BSA, 0.02% v/v sodium azide (NaN3)). Staining was performed in 96-well round-bottomed microtiter plates using ice-cold reagents/solutions at 4° C. to prevent the modulation and internalization of surface antigens. 100,000 cells/well were added to 96-well plates (100 μL/well) and centrifuged at 300×g for 3 minutes. […] For analysis of the data, the Median Fluorescence Intensity (MFI) values were obtained.
Cellular binding of the in total 75 humanized anti-c-Met antibodies (originating from the three selected chimeric antibodies) was studied in human c-Met-positive tumor cell lines MKN45, NCI-H596 and PC-3, rhesus c-Met-positive tumor cell line 4 MBr-5, and human c-Met-negative tumor cell line MDA-MB-175-VII. […] For analysis of the data, the Median Fluorescence Intensity (MFI) values were obtained.
(In flow cytometry, cells or beads pass a laser one at a time.)

T1 sequence (P08581 25-1390): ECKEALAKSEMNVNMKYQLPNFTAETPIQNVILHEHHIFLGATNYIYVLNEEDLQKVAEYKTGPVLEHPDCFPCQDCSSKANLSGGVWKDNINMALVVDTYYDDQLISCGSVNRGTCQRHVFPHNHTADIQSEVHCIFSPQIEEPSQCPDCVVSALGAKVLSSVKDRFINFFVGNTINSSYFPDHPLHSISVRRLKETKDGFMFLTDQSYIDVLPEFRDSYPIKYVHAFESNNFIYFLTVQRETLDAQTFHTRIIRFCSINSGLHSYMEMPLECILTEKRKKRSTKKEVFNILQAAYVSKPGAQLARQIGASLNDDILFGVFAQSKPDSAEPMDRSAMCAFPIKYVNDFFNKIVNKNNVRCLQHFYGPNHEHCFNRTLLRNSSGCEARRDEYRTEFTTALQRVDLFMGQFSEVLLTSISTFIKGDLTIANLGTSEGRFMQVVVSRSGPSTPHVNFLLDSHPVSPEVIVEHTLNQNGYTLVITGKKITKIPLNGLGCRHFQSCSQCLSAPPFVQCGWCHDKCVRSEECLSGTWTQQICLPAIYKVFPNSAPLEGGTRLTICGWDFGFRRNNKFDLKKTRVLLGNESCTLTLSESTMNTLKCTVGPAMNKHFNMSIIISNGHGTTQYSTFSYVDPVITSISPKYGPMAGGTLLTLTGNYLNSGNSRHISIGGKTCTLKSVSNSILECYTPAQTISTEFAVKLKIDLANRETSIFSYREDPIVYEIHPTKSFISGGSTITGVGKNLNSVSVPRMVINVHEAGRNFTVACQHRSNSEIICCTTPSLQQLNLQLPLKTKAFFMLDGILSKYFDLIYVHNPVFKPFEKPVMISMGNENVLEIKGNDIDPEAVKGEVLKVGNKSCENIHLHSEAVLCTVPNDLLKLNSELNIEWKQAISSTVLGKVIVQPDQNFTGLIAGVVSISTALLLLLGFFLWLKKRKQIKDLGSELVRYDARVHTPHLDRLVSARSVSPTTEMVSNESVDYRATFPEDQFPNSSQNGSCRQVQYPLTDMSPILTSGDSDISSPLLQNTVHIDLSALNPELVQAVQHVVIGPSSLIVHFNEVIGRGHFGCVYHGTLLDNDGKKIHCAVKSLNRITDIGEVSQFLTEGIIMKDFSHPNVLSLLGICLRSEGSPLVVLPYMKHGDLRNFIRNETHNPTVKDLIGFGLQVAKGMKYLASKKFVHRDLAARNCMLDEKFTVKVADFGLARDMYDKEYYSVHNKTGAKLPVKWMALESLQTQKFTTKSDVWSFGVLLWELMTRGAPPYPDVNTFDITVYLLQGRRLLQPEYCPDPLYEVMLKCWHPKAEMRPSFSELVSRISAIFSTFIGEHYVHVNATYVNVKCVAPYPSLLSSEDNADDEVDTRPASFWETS

B1: ADC3b: mAb3b site-specifically conjugated (HC 41C) to vc-seco-DUBA, DAR 1.9 (conjugate)
heavy: QVQLVQSGAEVKKPGASVKVSCKASGYTFTDYYLNWVRQACGQGLEWMGLIFPGNDKTEYSEKFKGRVTLTTDTSISTAYMELSSLTSDDTALYYCSGGDYGGFVYWGQGTLVTVSS[sequence of human IgG1 constant region not given]
light: DIQMTQSPSSLSASVGDRVTISCGASENIYGALNWYQQQPGKAPKVLIFGATNLADGVPSRFSGSGSGTDFTLTISSLQPEDFATYYCQNVLSSPLTFGQGTKLEIKRTVAAPSVFIFPPSDEQLKSGTASVVCLLNNFYPREAKVQWKVDNALQSGNSQESVTEQDSKDSTYSLSSTLTLSKADYEKHKVYACEVTHQGLSSPVTKSFNRGEC
For the molecule B1, the “binding affinity of ADC versus unconjugated antibody” value is “equal binding affinities”.
